Among the data in PubChem BioAssay (NCI) are GI50 and TGI values, retold here.

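GI50: concentration for 50% inhibition of growth. TGI: total growth inhibition.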 Active and inactive are the calls of the source. A value given as a limit tells only on which side of the number the result lay.

Some test systems named below: M14 melanoma; SNB-75 CNS; OVCAR-3 ovarian; HL-60(TB) leukemia; UACC-62 melanoma; SF-268 CNS; SK-MEL-5 melanoma.
Test in all cases: NCI anticancer screen, dose series, 384-well format

For `CNC(=O)c1ccccc1Sc1ccc2c(/C=C/c3ccccn3)n[nH]c2c1`, the GI50 entry with M14 melanoma, in the experiment on SNB-75 CNS, in the experiment on OVCAR-3 ovarian, in the experiment with HL-60(TB) leukemia, in the experiment on UACC-62 melanoma and in the experiment with SF-268 CNS was “inactive” in each case. Also, the GI50 result in the experiment on SK-MEL-5 melanoma is “inactive”. For the same compound, the TGI in the experiment on M14 melanoma is 38.9 µM; with SNB-75 CNS, 51.7 µM; with OVCAR-3 ovarian, more than 100 µM; in the experiment on HL-60(TB) leukemia, 10.6 µM; in the experiment with UACC-62 melanoma, 23.4 µM; with SF-268 CNS, 77.6 µM. The compound also showed a TGI in the experiment on SK-MEL-5 melanoma of 28.3 µM.
